# Source: PubChem BioAssay AID463173 (ICCB-Longwood Screening Facility, Harvard Medical School, 2010)
# In all, about 52,000 compounds went through this assay and about 4,300 (8.3%) were called active. Cut-off read from the data, not from the text of the source: active = survival mostly below about 52% (no sharp cut-off); inactive = mostly above about 56%. This is one part of the list.
# System: DeltatarO mutant
# Assay: growth inhibition of S. aureus wild type versus tarO mutant, primary screen, teichoic acid synthesis inhibitors, RN4220, OD600 (AID 463173)
# Conditions: OD600, 18 h, stronger effect = lower value, screened at 18.75 µg/mL (by protocol)
row,Compound,survival
1,C=CCN1C(=O)C2(NC(=O)c3ccccc3N2)c2ccccc21 (stereo unspecified),inactive: 96%
2,Cc1ccc2oc(=O)c3cc(C(=O)NCc4ccc(Cl)cc4)sc3c2c1,inactive: 93%
3,COC(=O)CNC(=O)C1CCN(c2nc(C)cc(-c3ccccc3)n2)CC1,inactive: 96%
4,Cc1ccc(NC(=O)C2CCCN2S(=O)(=O)c2cccc3nsnc23)c(Br)c1 (stereo unspecified),inactive: 89%
5,Cc1cccc(C(=O)NC(=O)Nc2ccc(-n3nc(C(F)(F)F)cc3C(F)(F)F)cc2)c1,inactive: 72%
6,COc1ccc(-c2nc(C)c(CCNC(=O)c3ccccc3Br)s2)cc1OC,inactive: 76%
7,Cc1c2cnn(CC(=O)NCc3ccc(F)cc3)c(=O)c2c(C)n1Cc1ccccc1Cl,inactive: 85%
8,COc1cccc(Cn2cnc3c2c(=O)n(C)c(=O)n3C)c1,inactive: 138%
9,CCOc1cc(Br)c(C2C(C(=O)OC)=C(C)NC3=C2C(=O)c2ccccc23)cc1OCC (stereo unspecified),inactive: 119%
10,COCCCNC(=O)C1CCN(c2ncnc3c2nc2n3CCCCC2)CC1,inactive: 80%
11,CC(=O)N1CCCc2cc(S(=O)(=O)N3CCC(N(C)C(C)C)CC3)ccc21,inactive: 94%
12,Cc1ccc(-c2c(C)n3c4c(=O)n(C)c(=O)n(C)c4nc3n2CCCO)cc1,inactive: 81%
13,CCOC(=O)c1ccccc1NC(=O)Cn1c(=O)n(Cc2ccc(C(=O)NCc3ccc4c(c3)OCO4)cc2)c(=O)c2ccccc21,inactive: 91%
14,COc1ccc(C(=O)Nc2cccc(-c3nc4cccnc4s3)c2C)c(OC)c1,inactive: 103%
15,CCOc1ccc(NC(=O)C2CCCN(S(=O)(=O)c3ccc(Br)s3)C2)cc1 (stereo unspecified),inactive: 101%
16,COc1cccc2sc(N(Cc3cccnc3)C(=O)c3ccc(S(=O)(=O)N(C)C)cc3)nc12,inactive: 91%
17,O=C(O)c1ccccc1NC(=O)N1c2ccccc2Sc2ccccc21,active: 40%
18,COc1ccccc1CNC(=O)c1cc2cc(S(=O)(=O)N3CCCCC3)ccc2n1C,inactive: 94%
19,CCOC(=O)C1CCCN(C(=O)C2CCN(S(=O)(=O)c3c(C)noc3/C=C/c3ccc(C)cc3)CC2)C1 (stereo unspecified),inactive: 55%

row,Compound,survival
1,CC1CCCN(Cc2c(O)ccc3c(=O)c(-c4ccc(Cl)cc4)c(C(F)(F)F)oc23)C1 (stereo unspecified),active: 46%
2,COc1cc2c(cc1OC)C(c1cc(OC)c(O)c(OC)c1)CC(=O)N2 (stereo unspecified),inactive: 91%
3,Cc1nc2c(C(=O)NCCC(C)C)cnn2c(C)c1Cc1c(F)cccc1Cl,inactive: 73%
4,COc1ccc2c(c1)c1c(c(=O)n(-c3ccc(C)cc3)c(=O)n1CC(=O)Nc1cc(C)ccc1C)n2C,inactive: 115%
5,CCC(C)NC(=O)C1CCN(S(=O)(=O)c2ccc3c(ccn3CC)c2)CC1 (stereo unspecified),active: 8%
6,O=C1NC(=O)C(c2ccccc2)(c2ccccc2)N1,inactive: 76%
7,COc1ccc(OC)c(NC(=O)c2nc(SCc3ccc(F)cc3)ncc2Cl)c1,inactive: 77%
8,O=C(NCCc1csc(-c2ccc(F)cc2)n1)C(=O)Nc1ccc(Cl)cc1,inactive: 75%
9,CCC(=O)N1c2ccc(S(=O)(=O)NCCc3ccccc3)cc2CC1C (stereo unspecified),inactive: 77%
10,O=C(/C=C/c1cn(CC(O)CN2CCc3ccccc32)c2ccccc12)c1ccc(Br)cc1 (stereo unspecified),inactive: 68%
11,O=C(/C=C1\NC2(CCCC2)Cc2ccccc21)N1CCOCC1,inactive: 64%
12,Cc1cc(C)cc(N2C(=O)CS(=O)(=O)C23C(=O)N(Cc2ccccc2)c2ccccc23)c1 (stereo unspecified),inactive: 82%
13,CC(=O)NC1=NN(C(C)=O)C(C)(CS(=O)(=O)c2ccc(C)c(C)c2)S1 (stereo unspecified),inactive: 71%
14,O=S(N1CCCCC1)C12CC3CC(CC(C3)C1)C2 (stereo unspecified),inactive: 81%
15,Cc1cc(OCC(=O)Nc2ncn[nH]2)c(C)c(C)c1Br,inactive: 114%
16,COc1ccc(-c2cc(C(F)(F)F)nc(SCC(=O)Nc3ccc(C(C)=O)cc3)n2)cc1,inactive: 59%
17,COc1nnc(-c2ccc(N3CCCCC3)c(NC(=O)c3ccc(Cl)cc3)c2)c2ccccc12,inactive: 107%
18,N#Cc1nc(COc2ccc(Cl)cc2)oc1NCc1ccco1,inactive: 87%
19,CCc1cc(=O)[nH]c(SCc2nc(-c3ccccc3C)no2)n1,inactive: 84%

row,Compound,survival
1,CCOC(=O)C1CCN(c2ncnc3c2c(-c2ccccc2)cn3-c2ccc(C)c(Cl)c2)CC1,inactive: 89%
2,Cc1cc(Nc2cccc(O)c2)c2cccc(Br)c2n1,active: 61%
3,Cc1sc2ncn(CC(=O)Nc3ccc(C(F)(F)F)cc3)c(=O)c2c1S(=O)(=O)N1CCN(C)CC1,inactive: 144%
4,Cc1nnc(SCC(=O)N(c2ccccc2)c2ccccc2)nc1C,inactive: 57%
5,Cc1cccc(NC(=O)CSc2nnc3c4ccccc4n(C)c3n2)c1,inactive: 74%
6,CCc1ccc(S(=O)(=O)c2cn(CC(=O)Nc3cccc(C)c3)c3ccc(Cl)cc3c2=O)cc1,inactive: 72%
7,CC1=NN(C(=O)c2ccccc2Cl)C(O)(C2CCCCC2)C1 (stereo unspecified),inactive: 73%
8,COC(=O)c1ccccc1NC(=O)N(Cc1ccc(C)cc1)Cc1cccn1-c1nnc(N2CCCC2=O)s1,inactive: 123%
9,CCOC(=O)c1[nH]c(C)c(CCC(=O)NCc2ccc(OC(C)C)cc2)c1C,inactive: 80%
10,COc1ccc(C)cc1NC(=O)C1CCN(S(=O)(=O)c2cccc3nonc23)CC1,inactive: 108%
11,Cc1ccc(CNS(=O)(=O)c2c(C(=O)N3CCC(C)CC3)c(C)n(C)c2C)cc1,inactive: 87%
12,CC(C)Oc1ccc(CNC(=O)C2CCCN(S(=O)(=O)c3ccc4c(ccn4C)c3)C2)cc1 (stereo unspecified),inactive: 118%
13,CCCn1cc(S(=O)(=O)c2ccc(OC)cc2)c(=O)c2cc(F)c(N3CCCCCC3)cc21,inactive: 72%
14,Cc1ccc(CSc2nnc3[nH]c(=O)cc(C)n23)cc1,inactive: 71%
15,CCn1cc(S(=O)(=O)c2ccc(C)cc2C)c(=O)c2cc(F)c(N3CCCC3)cc21,inactive: 89%
16,COc1ccc(CN2CCN(S(=O)(=O)c3ccccc3)CC2)c(OC)c1,inactive: 61%
17,CCCN1C(=O)C2(c3ccccc31)c1c(oc3cc(C)c(C)cc3c1=O)C(=O)N2CCCOC (stereo unspecified),active: 55%
18,CCC(=O)N1c2ccccc2CC1C(=O)NCCc1ccc(OC)cc1OC (stereo unspecified),inactive: 55%
